Publication PMC10894277
No constants are given. Whether binding was seen depends on the method and setting. Binding seen in cells or lysates may run through a third protein. Some entries that bind do so weakly or less than the wild type.

Sequences of proteins named here, by UniProt entry; tags and fusion partners are left off. Residues count along the entry.
UniProt P39087, residues 32-908: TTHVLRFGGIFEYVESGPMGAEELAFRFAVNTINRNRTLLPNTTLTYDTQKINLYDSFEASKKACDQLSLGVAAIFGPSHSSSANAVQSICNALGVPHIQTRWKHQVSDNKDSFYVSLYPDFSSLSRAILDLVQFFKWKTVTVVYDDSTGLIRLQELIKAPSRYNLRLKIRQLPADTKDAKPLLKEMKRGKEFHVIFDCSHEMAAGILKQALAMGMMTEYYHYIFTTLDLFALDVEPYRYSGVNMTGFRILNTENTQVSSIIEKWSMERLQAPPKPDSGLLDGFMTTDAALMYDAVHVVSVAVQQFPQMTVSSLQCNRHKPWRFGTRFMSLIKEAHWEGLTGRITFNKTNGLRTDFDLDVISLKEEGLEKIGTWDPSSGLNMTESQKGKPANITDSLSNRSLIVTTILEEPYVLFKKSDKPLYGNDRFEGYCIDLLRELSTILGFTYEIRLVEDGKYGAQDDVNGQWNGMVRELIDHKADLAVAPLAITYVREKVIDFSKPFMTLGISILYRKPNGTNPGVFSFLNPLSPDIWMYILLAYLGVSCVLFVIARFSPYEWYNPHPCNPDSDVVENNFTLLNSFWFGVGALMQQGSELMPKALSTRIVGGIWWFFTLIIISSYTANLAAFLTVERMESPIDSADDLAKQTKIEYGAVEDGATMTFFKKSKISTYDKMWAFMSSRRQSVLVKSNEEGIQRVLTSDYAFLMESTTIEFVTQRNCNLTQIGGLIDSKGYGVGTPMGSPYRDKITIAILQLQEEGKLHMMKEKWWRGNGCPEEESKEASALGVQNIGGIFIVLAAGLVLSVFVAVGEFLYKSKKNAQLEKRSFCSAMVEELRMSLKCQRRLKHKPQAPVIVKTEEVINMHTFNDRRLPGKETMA
UniProt B1AS29, residues 32-919: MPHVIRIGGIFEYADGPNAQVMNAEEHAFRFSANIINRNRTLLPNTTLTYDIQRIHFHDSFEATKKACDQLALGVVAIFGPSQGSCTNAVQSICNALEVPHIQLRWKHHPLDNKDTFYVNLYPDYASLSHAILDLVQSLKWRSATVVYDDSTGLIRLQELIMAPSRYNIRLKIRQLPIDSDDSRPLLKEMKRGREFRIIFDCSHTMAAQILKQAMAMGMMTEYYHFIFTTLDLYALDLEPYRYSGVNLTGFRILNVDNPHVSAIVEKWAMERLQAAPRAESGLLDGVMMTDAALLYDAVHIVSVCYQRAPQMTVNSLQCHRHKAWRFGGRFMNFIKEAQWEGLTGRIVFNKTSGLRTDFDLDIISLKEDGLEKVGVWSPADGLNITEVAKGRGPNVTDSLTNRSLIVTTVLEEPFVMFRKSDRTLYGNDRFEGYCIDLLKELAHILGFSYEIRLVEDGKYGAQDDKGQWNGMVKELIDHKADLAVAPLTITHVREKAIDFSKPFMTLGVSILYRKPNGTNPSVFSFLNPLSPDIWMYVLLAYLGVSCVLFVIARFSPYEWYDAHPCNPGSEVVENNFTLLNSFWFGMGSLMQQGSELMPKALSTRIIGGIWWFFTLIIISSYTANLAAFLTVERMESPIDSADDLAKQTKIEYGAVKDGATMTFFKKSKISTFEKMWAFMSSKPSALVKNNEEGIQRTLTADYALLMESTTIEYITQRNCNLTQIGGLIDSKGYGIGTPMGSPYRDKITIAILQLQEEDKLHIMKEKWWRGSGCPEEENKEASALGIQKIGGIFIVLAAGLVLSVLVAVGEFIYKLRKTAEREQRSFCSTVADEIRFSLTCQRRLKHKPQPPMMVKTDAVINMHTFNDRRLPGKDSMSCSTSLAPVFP

T1: GluK5 kainate receptor subunit (mouse (endogenous in mouse cortex)) (UniProt Q61626)
T1 sequence: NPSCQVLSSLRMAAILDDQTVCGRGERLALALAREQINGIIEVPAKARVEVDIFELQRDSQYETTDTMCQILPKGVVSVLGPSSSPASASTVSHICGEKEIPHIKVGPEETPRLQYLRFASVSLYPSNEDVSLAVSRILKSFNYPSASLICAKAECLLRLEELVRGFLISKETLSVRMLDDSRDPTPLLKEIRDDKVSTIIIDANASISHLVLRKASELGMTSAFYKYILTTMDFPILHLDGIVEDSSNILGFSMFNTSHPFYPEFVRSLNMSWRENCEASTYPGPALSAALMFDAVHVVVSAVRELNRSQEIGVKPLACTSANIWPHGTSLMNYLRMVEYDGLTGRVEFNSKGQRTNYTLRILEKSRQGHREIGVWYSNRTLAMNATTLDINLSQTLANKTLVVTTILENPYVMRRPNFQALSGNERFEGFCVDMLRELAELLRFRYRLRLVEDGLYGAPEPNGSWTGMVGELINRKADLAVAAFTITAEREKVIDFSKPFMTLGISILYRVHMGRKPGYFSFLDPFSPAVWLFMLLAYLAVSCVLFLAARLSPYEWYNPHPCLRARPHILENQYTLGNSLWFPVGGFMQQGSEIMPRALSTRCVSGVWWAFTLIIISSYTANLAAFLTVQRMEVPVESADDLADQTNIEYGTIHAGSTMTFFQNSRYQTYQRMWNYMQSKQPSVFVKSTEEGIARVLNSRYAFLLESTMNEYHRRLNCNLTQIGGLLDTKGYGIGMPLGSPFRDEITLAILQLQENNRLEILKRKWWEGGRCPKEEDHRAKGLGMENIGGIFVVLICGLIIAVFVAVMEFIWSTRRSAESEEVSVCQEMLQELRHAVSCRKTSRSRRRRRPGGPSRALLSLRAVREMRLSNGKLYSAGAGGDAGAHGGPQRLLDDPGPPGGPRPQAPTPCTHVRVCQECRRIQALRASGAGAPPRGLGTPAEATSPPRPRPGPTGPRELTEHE

T2: GluK4 kainate receptor subunit (mouse (endogenous in mouse cortex)) (UniProt Q8BMF5)
T2 sequence: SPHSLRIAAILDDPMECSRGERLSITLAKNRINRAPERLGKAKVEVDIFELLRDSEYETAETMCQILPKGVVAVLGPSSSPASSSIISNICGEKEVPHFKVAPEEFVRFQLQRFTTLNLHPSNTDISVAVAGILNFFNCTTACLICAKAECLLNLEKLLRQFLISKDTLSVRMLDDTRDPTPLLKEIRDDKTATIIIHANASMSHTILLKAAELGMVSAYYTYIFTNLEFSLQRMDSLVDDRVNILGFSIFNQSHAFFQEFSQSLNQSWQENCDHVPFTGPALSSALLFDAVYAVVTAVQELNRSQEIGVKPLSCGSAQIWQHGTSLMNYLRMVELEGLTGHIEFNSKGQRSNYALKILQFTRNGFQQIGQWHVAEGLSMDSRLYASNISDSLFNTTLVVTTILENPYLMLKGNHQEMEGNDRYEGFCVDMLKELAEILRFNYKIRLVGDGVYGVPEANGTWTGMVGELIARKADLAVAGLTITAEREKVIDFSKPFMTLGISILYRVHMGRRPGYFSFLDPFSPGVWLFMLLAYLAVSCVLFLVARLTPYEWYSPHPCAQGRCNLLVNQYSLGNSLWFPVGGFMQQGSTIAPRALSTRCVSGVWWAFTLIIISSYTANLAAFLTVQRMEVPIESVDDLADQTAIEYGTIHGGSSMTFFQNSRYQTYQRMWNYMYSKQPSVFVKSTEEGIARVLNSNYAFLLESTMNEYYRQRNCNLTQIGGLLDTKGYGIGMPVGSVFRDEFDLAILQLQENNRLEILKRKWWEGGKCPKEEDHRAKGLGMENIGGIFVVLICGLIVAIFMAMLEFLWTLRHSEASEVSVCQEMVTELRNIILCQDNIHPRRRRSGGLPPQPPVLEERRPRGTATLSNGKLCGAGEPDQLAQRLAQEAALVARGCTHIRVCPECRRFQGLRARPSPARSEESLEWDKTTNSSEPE

B1: GluK4 kainate receptor subunit (protein, UniProt Q8BMF5 21-956)
chain: T2 sequence
B2: GluK5 kainate receptor subunit (protein, UniProt Q61626 15-979)
chain: T1 sequence

Tests used:
Assay in all cases: co-IP; GluK2, GluK3, GluK4 or GluK5 antibody (1 ug) on Protein A agarose; mouse cortex (WT; also GluK3 KO) lysed in Buffer A (20 mM Tris-HCl pH 8.0, 150 mM NaCl, 5 mM EDTA, 1% Triton X-100); 4 °C overnight; washed twice with Buffer A plus 500 mM NaCl and four times with Buffer A; western blotting with GluK2-5 antibodies
[1] = target: T1, GluK5 kainate receptor subunit (mouse (endogenous in mouse cortex))
[2] = target: GluK2 kainate receptor subunit (mouse (endogenous in mouse cortex)) (UniProt P39087)
[3] = target: T2, GluK4 kainate receptor subunit (mouse (endogenous in mouse cortex))
[4] = target: GluK3 kainate receptor subunit (mouse (endogenous in mouse cortex)) (UniProt B1AS29)

| Molecule | binding [1] | binding [2] | binding [3] | binding [4] |
| --- | --- | --- | --- | --- |
| GluK3 kainate receptor subunit (from UniProt B1AS29 32-919) | no binding | binds | no binding | – |
| GluK2 kainate receptor subunit (from UniProt P39087 32-908) | binds | – | binds | binds |
| B1 | binds | binds | – | – |
| B2 | – | binds | binds | – |
